Paper PMC12136788
The other results are listed elsewhere or left out.

B1: chr3:81489889:81489990:-|3pUTR|ENSG00000114480|msi1|FALSE|unique (ssRNA)
RNA: GGGAGUUCUACAGUCCGACGAUCUUGGUCUAAAUUAUGAGGUACCAAGAUUGUUUCUUUGUUUCUUUUUUUCAAAUUGUGUUUAGAAAUACUGUAAUAAAUAUGCAGUAGUGAUAUAAAGAAUUAUAUCCAAGGUAAUAUAAACAACAGAGGAUUGAGCAUCA
B2: chr8:6757792:6757893:+|3pUTR|ENSG00000155189|msi1|FALSE|unique (ssRNA)
RNA: GGGAGUUCUACAGUCCGACGAUCAUUUAUUACAACUUGACAGCUCCAAGCUCUUAUUACUAAAGUAUUUAGUAUCUUGCAGCUAGUUAAUAUUUCAUCUUUUGCUUAUUUCUACAAGUCAGUGAAAUAAAUUGUAUUUAGGAACAACAGAGGAUUGAGCAUCA
B3: chrX:51895182:51895295:+|CDS|ENSG00000179222|unk|FALSE|unique (ssRNA)
RNA: GGGAGUUCUACAGUCCGACGAUCAGUUCACAGCCCCCAACUGCCAAUGAGAUGGCUGACAUUCAGGUUUCAGCAGCUGCCGCUAGGCCUAAGUCAGCCUUUAAAGUCCAGAAUGCCACCACAAAAGGCCCAAAUGGUGUCUAUCAACAGAGGAUUGAGCAUCA
B4: chr1:67411267:67411372:-|3pUTR|ENSG00000142864|unk|total|mutant (ssRNA)
RNA: GGGAGUUCUACAGUCCGACGAUCAACUCAUUUCCAAACAUGUACCAUGUUUUAUAAACCUCUUGAUUUCCAGCAACAUACUACCGAAAACACCUGCUACUCAAAACACAACUUCUCAGUGUCAUCCAUUGCUGUCGUGAGAGACAACAGAGGAUUGAGCAUCA
B5: ENSG00000166181:stop:overlap|stop_codon|ENSG00000166181|stop_codon|NA|stop_codon (ssRNA)
RNA: GGGAGUUCUACAGUCCGACGAUCGUGGGAAAUAUAGCAGCAAUUUGGGCAACUUUAAUUAUGAGAGGAGCCUUCAGGGGAAGUAGAGGUGGCCGAGGUUGGGGCACACGAGGAAAUCGUAGUCGGGGAAGACUCUACUGAAUACAACAGAGGAUUGAGCAUCA
B6: chr7:17792983:17793084:-|3pUTR|ENSG00000071189|msi1|FALSE|unique (ssRNA)
RNA: GGGAGUUCUACAGUCCGACGAUCGACAUGCCUUAGGUAACUGCAGAAAUAGCAAAUUAAAUGAUUAAUGAGCUUAUUAGUCAUAGUAAACAUACAGAUUCCUAAUUCUAUGACAGUGUACAUAUAUGAAAAUAAAUGAUGAAACAACAGAGGAUUGAGCAUCA
B7: chr14:39032579:39032680:-|3pUTR|ENSG00000100934|msi1|total|mutant (ssRNA)
RNA: GGGAGUUCUACAGUCCGACGAUCUGAUUUUAUAAUGGUAAUUUUCAUGAUGAUAAUGUUUUUGGUUAUUUGGAAAGACCGUUCCGAGAUGAAAGGUUUUUUUGGGUAACAAUCCCGCAGCUGACAAAAAAUGUGAAAUUUCCACAACAGAGGAUUGAGCAUCA
B8: chr1:2308404:2308505:+|3pUTR|ENSG00000157933|unk|FALSE|unique (ssRNA)
RNA: GGGAGUUCUACAGUCCGACGAUCUUCUUUGCUUUUGUUUUCUUUGCGGUUGUUCUGUGUGCAUGGAUUCCACACCUCUGCCGUAGGUAGAUCCGUCAGCGGGCAUUAUUACCGUGUCUUGUAAAGGGUCGGUUUUGUUAUGCACAACAGAGGAUUGAGCAUCA
B9: chr22:46679111:46679212:+|3pUTR|ENSG00000075240|msi1|FALSE|unique (ssRNA)
RNA: GGGAGUUCUACAGUCCGACGAUCAGGGCCCGGCAGUGCCCAAGGAUGGGUCCGGGGCCUCGGGGCCAAUGAGCGCCUCUUCCUAGGUGCUGGGAUUCAGUCCCCAAACACAGCGGGAGGGGUCCCUGGGGCAGAUGGGGCUUUCAACAGAGGAUUGAGCAUCA
B10: chr5:147393764:147393895:-|3pUTR|ENSG00000113657|msi1_unk|total|mutant (ssRNA)
RNA: GGGAGUUCUACAGUCCGACGAUCUCCAAUGUUACGCUCGCUUGCCCCGCUUUACGAAUAUUGCUUUGUUUUCUGUUUAUGCACCGCCUUGAUUUGUUUGACUCCCCUCCCCCCAUUUACAUGCAUGCAAUCAGACAGGCCACUCAACAGAGGAUUGAGCAUCA
B11: chr10:25598329:25598431:+|CDS|ENSG00000151025|unk|FALSE|unique (ssRNA)
RNA: GGGAGUUCUACAGUCCGACGAUCAUCGAUGUUACAGAAGUCUCUCAGUGUCAUAGCAAGCGCCAAGGAGAAGACUCUUGGAUUAGCUGGGAAAACCCAAACAGCAGGUGUGGAAGAACGCACUAAAUCCCAGAAACCUUUGCCCAACAGAGGAUUGAGCAUCA
B12: chr16:5044585:5044836:-|CDS|ENSG00000153446|control|control|control (ssRNA)
RNA: GGGAGUUCUACAGUCCGACGAUCGAGUAGCUGGGACUACAGGAGCGUGCCACCAUACCUGGCUAAUUUUUAUAUUUUUUUAGUAGAGACAGGGUUUCAUCAUGUUGCUCAUGCUGGUCUCGAACUCCUGAUCUCAAGAGAUCCCAACAGAGGAUUGAGCAUCA
B13: chr9:37441208:37441377:-|CDS|ENSG00000168795|unk|total|mutant (ssRNA)
RNA: GGGAGUUCUACAGUCCGACGAUCAGGGCCGGUGAUAUCCAUAUUUUGGAAGUCACAAAUAACCCCGAGCAUAAGUCCACUUUCCGUAUUUCGAAUUUUCUUAACAAGAGCAGAGGAAAUAACUUUACUGCAAAUCAGAACAAUCAACAGAGGAUUGAGCAUCA
B14: chr19:13097725:13097826:+|3pUTR|ENSG00000008441|msi1|FALSE|unique (ssRNA)
RNA: GGGAGUUCUACAGUCCGACGAUCUGAGCCAGACGCCAACUUGACCCUCACCAGCAUUAUCAGGAGCGCGCUCAGCAAGUUGGUAGUUUCCUCCCCCCUUUCCCGGCGCCCCUCCCGCCCCCAUUCAACAUCUCUCAUCCUAUCCAACAGAGGAUUGAGCAUCA
B15: chr1:155263244:155263345:-|CDS|ENSG00000176444|unk|total|mutant (ssRNA)
RNA: GGGAGUUCUACAGUCCGACGAUCGUAUCUGACCUCAGAGGCAGAGGAACACCACCAGCUCUUCGAUCUGAUUGAAAGCAUGCCCGAGUAUGAACCAGCUAAGCGGCUGACCUUGGGUGAAGCCCUUCAGCAUCCUUUCUUCGCCAACAGAGGAUUGAGCAUCA
B16: chr22:49888080:49888186:+|3pUTR|ENSG00000100426|unk|total|mutant (ssRNA)
RNA: GGGAGUUCUACAGUCCGACGAUCUGGCUUAUUAACAGGGAAGAAGCUUGUUAUAUUCCAGUUGUAAGAACCGCCUCCGUGUUCCGAUUUUUUUAUGACCGGGAAGAUGCGGCCAUCACUGGGAUAUUUUCAAAUCCCAAGGACCAACAGAGGAUUGAGCAUCA
B17: chr7:139284418:139284519:+|CDS|ENSG00000157741|unk|total|mutant (ssRNA)
RNA: GGGAGUUCUACAGUCCGACGAUCGCAAUGAAUGUACCUGCCAGCAGAGGCCGCAACCUUAACUCAAGCGGAGCUAACCGGACCCGUCUGUCUGGGGGAACAGGAAGUGGAACACAGGGUGCUACCAAACCAUUGUCUACUCCACAACAGAGGAUUGAGCAUCA
B18: chr8:94249252:94250309:-|three_prime_utr|ENSG00000164949|control|control|control (ssRNA)
RNA: GGGAGUUCUACAGUCCGACGAUCUCACCCAGAUGUCCCUUUGAUGGCCGUUGUUGAAGGCCAUUGGGACCAAUAAUCUAUAUUAGAUUGAAUACUUAAGUUAGAUGUGGUUUCCCCCAUUGUAGCAGGGAGCUAGCGUAUUAGCAACAGAGGAUUGAGCAUCA
B19: chr1:20742972:20743075:-|3pUTR|ENSG00000127483|unk|FALSE|unique (ssRNA)
RNA: GGGAGUUCUACAGUCCGACGAUCUAACCCUUUCUUAUUUGUAUUUGUUUUAGUAUUGUGAAGUUGUGUUAAAUAGUACUAGCUAGAAAUACAAAUUUCUGGUUAUCAUUUCUCUUCCCUGUGGCACUUGACAUUUUAAUUGUCCAACAGAGGAUUGAGCAUCA
B20: chr14:73275881:73276001:-|3pUTR|ENSG00000133961|unk|total|mutant (ssRNA)
RNA: GGGAGUUCUACAGUCCGACGAUCAAAUAUUAUAUAUAUCAAAAGCCAAAAUCUUUAUUUUUAUGCAUUCCGAAUAUUUUAAACCGUUCUCAGAUAUUAAGAAGUUGUAUGAGUUGUAAGUAAUCUUGCCAAAGGUAAAGGGGCCAACAGAGGAUUGAGCAUCA
B21: chr21:25606471:25606579:-|CDS|ENSG00000154719|unk|total|mutant (ssRNA)
RNA: GGGAGUUCUACAGUCCGACGAUCUGAUCUCUUUAAUAAAGAGAAAGCCAGGCAGUUAUCAUUAACUCCCCGAACUGAGAAGACCGAAGUUAAGCAUGUUGGGAAAACUGACCCCGGUACUGUCUUCGUGAUGAAUAAAAACAUCAACAGAGGAUUGAGCAUCA
B22: ENSG00000120616:stop:overlap|stop_codon|ENSG00000120616|stop_codon|NA|stop_codon (ssRNA)
RNA: GGGAGUUCUACAGUCCGACGAUCAAUCAGAAAAGCCAGCACUGAACAACAUAGCAGACAACACAGUAGCGAUGGAGGUGACGUAGCUUCCUCCGAGUGGAACUGCAGCCUGGGGACUUGAUUAGGUGCUAUGCAUCAGUAGCACAACAGAGGAUUGAGCAUCA

biological target: MSI1 full-length (mouse, UniProt Q61474 1-362); experiment: nsRBNS (natural sequence RNA bind-n-seq); RBNS binding buffer (assumed for nsRBNS): 25 mM Tris pH 7.5, 150 mM KCl, 3 mM MgCl2, 0.01% Triton X-100, 500 ug/ml BSA, 20 U/ml SUPERase-In, 4 C; UNK is unkempt and MSI1 is Musashi-1; names of the RNAs are library labels; protein concentration not given here; high values mean tight binding
Sequence of UniProt Q61474 (Q61474 whole entry): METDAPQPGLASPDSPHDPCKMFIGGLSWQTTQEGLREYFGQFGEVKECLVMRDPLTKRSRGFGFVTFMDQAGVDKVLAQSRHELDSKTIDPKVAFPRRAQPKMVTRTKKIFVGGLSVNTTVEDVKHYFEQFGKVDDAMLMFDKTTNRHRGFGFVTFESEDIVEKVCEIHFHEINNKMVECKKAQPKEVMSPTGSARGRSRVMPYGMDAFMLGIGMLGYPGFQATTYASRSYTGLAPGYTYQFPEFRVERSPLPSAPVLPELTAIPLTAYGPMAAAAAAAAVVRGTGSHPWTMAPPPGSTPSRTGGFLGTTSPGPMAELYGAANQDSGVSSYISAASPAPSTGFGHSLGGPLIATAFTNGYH

Row | Binder | binding signal [enrichment R]
1 | B1 | 2.36
2 | B2 | 1.46
3 | B3 | 0.449
4 | B4 | 0.416
5 | B5 | 1.94
6 | B6 | 2.96
7 | B7 | 0.316
8 | B8 | 0.32
9 | B9 | 0.374
10 | B10 | 0.792
11 | B11 | 0.57
12 | B12 | 4.11
13 | B13 | 0.204
14 | B14 | 0.833
15 | B15 | 0.324
16 | B16 | 0.28
17 | B17 | 0.436
18 | B18 | 11.6
19 | B19 | 3.75
20 | B20 | 2.38
21 | B21 | 0.257
22 | B22 | 0.702
